# Measured values reported in PubChem BioAssay (NCI).
#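 All cell lines were grown in 96-well plates and treated with compound for 48 hours. GI50 is the concentration that inhibits growth by half. TGI: concentration producing complete growth inhibition.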
# Tested on: NCI-H322M lung
# Test: NCI tumour cell line growth inhibition, 48 h
SMILES,GI50,TGI
CCOC(=O)c1c(NCC(=O)Nc2ccc(Br)cc2)sc2c1CCCC2,1670 nM,3190 nM
C/C(=N\NC(=O)CSc1nc2sc3c(c2c(=O)n1-c1ccccc1)CCC(C)C3)c1ccc(Cl)cc1 (stereo unspecified),2690 nM,> 100000 nM
COc1cc(OC)c(/C=C/S(=O)(=O)Cc2ccc(OC)c(NCC(=O)NO)c2)c(OC)c1,64.7 nM,> 100000 nM
